Data: PubChem BioAssay (NCI)
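Assay format: 96-well plates, 48-hour exposure. At the GI50, growth is halved. TGI: total growth inhibition.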

Tested on: NCI-H322M lung
Assay: growth of human tumour cells (NCI), 48 h

| Compound | GI50 [µM] | TGI [µM] |
| --- | --- | --- |
| COc1ccc(N(C)c2cc(C#N)nc3ccccc23)cc1/C=C/C(=O)NO | < 0.01 | 25.6 |
| N#Cc1c(-c2ccc(F)cc2)nc(SCc2ccc(F)cc2)nc1N1CCNCC1 | 14 | 27.2 |
| COC(=O)C[C@](O)(CCCC(C)C)C(=O)O[C@H]1C(OC)=C[C@@]23CCCN2CCc2cc4c(cc2[C@@H]13)OCO4 | 6.95 | 25.6 |
